Data: a collection of fitness landscapes (doi:10.1016/j.celrep.2020.107928)
Over roughly 81,000 sequences, “one-hybrid fitness for binding parS DNA” has its median near -0.17; the highest 2% begin near 0.51. The list shows a part of the results.

B1: Caulobacter ParB omega fusion; a variant is named by its letters at X, in order, B8GW30 (parent)
chain: MESVVVGEPGMSEGRRGLGRGLSALLGEVDAAPAQAPGEQLGGSREAPIEILQRNPDQPRRTFREEDLEDLSNSIREKGVLQPILVRPSPDTAGEYQIVAGERAWRAAQRAGLKTVPIMVRELDDLAVLEIGIIENVQRADLNVLEEALSYKVLMEKFERTQENIAQTIGKSXSHVANXMRLLXLPDEVQSYLVSGELTAXHARAIAAAADPVALAKQIIEGGLSVRETEALARKAPNLSAGKSKGGRPPRVKDTDTQALESDLSSVLGLDVSIDHRGSTGTLTITYATLEQLDDLCNRLTRGI

Variants of: B1
Assay: one-hybrid fitness for binding parS DNA (scaled: cognate 1, non-cognate 0); higher = stronger binding
Details: with parS DNA site
Outline: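 Fitness here means the log change in variant-to-wild-type read ratio between plasmids sequenced before and after selection. That scale was set so cognate equals 1 and non-cognate equals 0. The selection was a bacterial one-hybrid screen of Caulobacter ParB libraries, four specificity codons randomised, in E. coli USO carrying a HIS3 reporter with the site 19 bp from the promoter, grown 48 hours at 37°C on M9-minus-histidine with 0.1 mM IPTG and 5 mM 3-AT.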

Variant | one-hybrid fitness for binding parS DNA
RKEE | ≤ 0.2
MTYV | ≤ 0.2
LMRT | ≤ 0.2
DCGG | ≤ 0.2
RSST | 0.883
RNES | 0.776
AAFL | ≤ 0.2
TEYL | ≤ 0.2
GWIS | ≤ 0.2
GLRS | ≤ 0.2
PATW | ≤ 0.2
MDTR | ≤ 0.2
GHRC | ≤ 0.2
QRKY | ≤ 0.2
YGCA | ≤ 0.2
RNLE | ≤ 0.2
PISI | ≤ 0.2
AASA | ≤ 0.2
DKES | ≤ 0.2
ITMD | ≤ 0.2
RSLG | 0.987

Variant | one-hybrid fitness for binding parS DNA
QRCC | ≤ 0.2
IKQR | ≤ 0.2
NRTQ | ≤ 0.2
VAFT | ≤ 0.2
QQTY | ≤ 0.2
APAL | ≤ 0.2
HVNE | ≤ 0.2
NTMS | ≤ 0.2
DNNT | ≤ 0.2
YHNT | ≤ 0.2
AACS | ≤ 0.2
GTKS | ≤ 0.2
CNGF | 0.228
SDHM | ≤ 0.2
RHAF | ≤ 0.2
STYR | ≤ 0.2
HWWR | ≤ 0.2
GMVS | ≤ 0.2
QGLM | ≤ 0.2
MYNR | ≤ 0.2
HTQY | ≤ 0.2

Variant | one-hybrid fitness for binding parS DNA
WSWR | ≤ 0.2
GALT | ≤ 0.2
PDTL | ≤ 0.2
DIQQ | ≤ 0.2
PLMM | ≤ 0.2
NNDS | ≤ 0.2
QHIS | ≤ 0.2
LQPA | ≤ 0.2
APLR | ≤ 0.2
GQEK | ≤ 0.2
LHLT | ≤ 0.2
MMMY | ≤ 0.2
VPNL | ≤ 0.2
TCES | ≤ 0.2
NMQG | ≤ 0.2
RWKA | 0.574
CCRN | ≤ 0.2
HGNS | ≤ 0.2
LIVV | ≤ 0.2
KIKR | ≤ 0.2
LYQD | ≤ 0.2

Variant | one-hybrid fitness for binding parS DNA
IYSG | ≤ 0.2
TPWG | ≤ 0.2
ETGS | ≤ 0.2
VVKC | ≤ 0.2
LIFY | ≤ 0.2
QVKW | ≤ 0.2
EQIM | ≤ 0.2
AAFW | ≤ 0.2
PSNS | ≤ 0.2
CFMR | ≤ 0.2
MLCI | ≤ 0.2
TLWL | ≤ 0.2
MHMM | 0.262
SFTS | ≤ 0.2
PEYD | ≤ 0.2
SDGG | ≤ 0.2
VRPY | ≤ 0.2
KMHC | ≤ 0.2
PQTT | ≤ 0.2
PKFS | ≤ 0.2
YDSS | ≤ 0.2
